Measured values: PubChem BioAssay AID1508642 (National Center for Advancing Translational Sciences (NCATS), 2021)
Hit rate of the full screen: of about 43,000 compounds, about 200 (0.47%) were called active. Roughly 12% stayed inconclusive and do not appear here. Calls come from the whole dose curve; as a rule, active = well fitted cell-killing curve with a large enough effect; inconclusive = small, poorly fitted or top-dose-only effect, or effect the other way; inactive = flat fitted curve, though single readings scatter. The list shows a part of the results.

experiment: Cell viability qHTS assay in S16 Pmp22-F2sN cells; details: S16 Pmp22-F2sN Schwann cells (luciferase reporters placed in the Pmp22 gene) viability, CellTiter-Glo, 24 h; series mostly up to 57.5 µM; activity change, negative = cytotoxicity: at the top concentration; note: nearly all actives have a fitted effect of over 65% in size
Procedure, shortened: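 Seed 500-1,000 S16 Pmp22-F2sN cells per well in phenol-red-free DMEM with 10% heat-inactivated FBS; pin-add 23 nL compound; incubate 24 h at 37C; add CellTiter-Glo, wait 15 min protected from light; read luminescence.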
% is set by controls: 0 for no effect and ±100 for the full control effect.

| Structure (SMILES) | activity change, negative = cytotoxicity |
| --- | --- |
| COc1ccc(OC)c(NC(=O)CN(C)S(=O)(=O)c2ccc3[nH]c4c(c3c2)CCCC4)c1 | inactive: -12.8% |
| CCC(=O)N1CCc2cc(S(=O)(=O)CCC(=O)N3CCN(c4cc(C)ccc4C)CC3)ccc21 | inactive: 13.8% |
| COc1cccc(NC(=O)CSc2nc3ccccc3n2C)c1 | inactive: 0.409% |
| CCOc1ccc(NC(=O)c2c(NCc3ccc(C)o3)sc3c2CCC(C)C3)cc1 (stereo not given) | inactive: 4.19% |
| Cc1nnc(N2CCC(C(=O)NC3CCCCC3)CC2)c2nn(-c3ccc(Cl)cc3)c(C)c12 | inactive: -2.29% |
| CCOc1ccc(C(=O)NCC(c2ccc3c(c2)OCO3)N2CCN(c3ccccc3F)CC2)cc1 (stereo not given) | inactive: -14.2% |
| COc1ccc(OC)c(CCNC(=O)c2c(C)nn(-c3ccc(F)cc3)c2-n2cccc2)c1 | inactive: -2.28% |
| COc1ccc(Cn2nnc(C(=O)Nc3cc(OC)ccc3OC)c2N)cc1 | inactive: -17.5% |
| COCCCNC(=O)C1CCN(Cc2nc(-c3ccc(OC)c(OC)c3)oc2C)CC1 | inactive: 15.3% |
| Cc1ccc(NC(=O)Cn2c(=O)n(Cc3ccco3)c(=O)c3ccc(C(=O)NC4CCCC4)cc32)c(C)c1 | inactive: 5.27% |
| Cc1ccc(C)c(CN2C(=O)c3ccccc3S(=O)(=O)c3ccc(C(=O)N4CCN(c5ccccn5)CC4)cc32)c1 | inactive: -17.5% |
| COc1cc(NC(=O)CN2C(=O)COc3ccc(S(=O)(=O)N4CCCCC4)cc32)cc(OC)c1 | inactive: 4.01% |
| CCc1cccc(N2C(=O)N(CC(=O)NCc3cccc(OC)c3OC)c3ccccc3S2(=O)=O)c1 | inactive: 14.3% |
| CCCN1C(=O)C(Cc2nc3ccccc3c(=O)n2-c2ccccc2)c2cc(C)ccc21 (stereo not given) | inactive: -23.3% |
| COc1ccc(C)cc1Nc1nc2cc(Cl)c(Cl)cc2nc1-n1nc(C)cc1C | inactive: -5.16% |
| C=Cc1ccc(CN2C(=O)N(c3ccc(CC)cc3)S(=O)(=O)c3ccccc32)cc1 | inactive: 13.7% |
| COc1ccc(C)cc1NC(=O)CSc1nc(=O)n(Cc2ccncc2)c2c1CCC2 | inactive: -19.1% |
| COc1ccc(C)cc1NC(=O)NCc1ccc2c(c1)CCN2C(=O)c1ccccc1 | inactive: -23.8% |
| Cc1ccc(NC(=O)Cn2c(=O)n(-c3ccccc3)c(=O)c3c4c(sc32)CCCC4)cc1 | inactive: 24.2% |
| O=C(CSc1ncc2c(n1)-c1ccccc1N(Cc1ccccc1)S2(=O)=O)Nc1ccccc1 | inactive: 0.231% |

| Structure (SMILES) | activity change, negative = cytotoxicity |
| --- | --- |
| COCCNC(=O)c1ccc(CSc2nc3ccncc3n2Cc2ccccc2)cc1 | inactive: 5.84% |
| COC(=O)c1ccc(OCC2c3cc(OC)c(OC)cc3CCN2C(=O)C(C)C)cc1 (stereo not given) | inactive: -11.2% |
| CCOC(=O)COc1ccc(C)cc1C(=O)c1ccn2nc(-c3ccc(C)cc3)cc2n1 | inactive: 14.3% |
| Cc1ccc2c(c1)NC(=O)C(CC(=O)Nc1ccccc1Cl)O2 (stereo not given) | inactive: 17.8% |
| Cc1ccc(Nc2nnc(-c3ccc(C)c(S(=O)(=O)N4CCOCC4)c3)c3ccccc23)c(C)c1 | inactive: 0.717% |
| CCOc1ccc(C(=O)c2cn(Cc3ccc(Cl)cc3)c3cc(OC)c(OC)cc3c2=O)cc1 | inactive: -26.2% |
| CCC(Cc1ccccc1)NC(=O)Cn1ncc2c3ccccc3n(Cc3ccccc3)c2c1=O (stereo not given) | inactive: 17.3% |
| CCc1nc2nc(C)cc(Nc3ccc(OC)cc3OC)n2n1 | inactive: -17.5% |
| Cc1ccc(Cl)cc1N1CCN(C(=O)c2cc(S(=O)(=O)N3CCCC3)cn2C)CC1 | inactive: 0.946% |
| Cc1cc(C)n2nc(SCC(=O)Nc3ccccc3C)nc2n1 | inactive: -4.84% |
| COc1ccc(N2C(=O)C(CC(=O)Nc3ccc(F)cc3)N(Cc3ccc4c(c3)OCO4)C2=O)cc1 (stereo not given) | inactive: -4.2% |
| COC(=O)c1cnc(NCc2ccc(F)cc2)c2ccccc12 | inactive: -9.55% |
| CCN(CC)C(=O)Cn1c(=O)nc(-c2ccccc2F)c2cc(Cl)ccc21 | inactive: 4.7% |
| CCCNC(=O)N1[C@H](c2ccc(C)s2)[C@@H](C)C(=O)[C@@H](C)[C@@H]1c1ccc(C)s1 | inactive: -2.16% |
| COc1ccc(CC(=O)NCC(c2ccc(N(C)C)cc2)N2CCOCC2)cc1 (stereo not given) | inactive: -3.99% |
| CC(C)c1ccc(OC(=O)c2cc(-c3ccc(Cl)cc3)on2)cc1 | inactive: -16.1% |
| COc1ccc(-n2c(=O)c3sc4ccccc4c3n(CC(=O)Nc3ccccc3F)c2=O)cc1 | inactive: 8.06% |
| O=C1c2[nH]nc(-c3ccccc3O)c2C(c2ccccc2F)N1Cc1ccncc1 (stereo not given) | inactive: 4.6% |
| CCOC(=O)Cc1ccc(NC(=O)NCc2cccn2Cc2ccccc2)cc1 | inactive: 6.07% |
| CCCN1Cc2cccc(C(=O)Nc3cc(C)cc(C)c3)c2C1=O | inactive: 0.743% |

| Structure (SMILES) | activity change, negative = cytotoxicity |
| --- | --- |
| CC(=O)Nc1ccc(C)cc1-c1nc2ccccc2n(CC(=O)Nc2cc(Cl)ccc2C)c1=O | inactive: 9.51% |
| COc1ccc(Cl)cc1NC(=O)CCC(=O)N1CCOc2ccccc21 | inactive: 0.741% |
| COC(=O)c1ccc(Cl)cc1NC(=O)N(Cc1ccc(C)o1)C1CCN(C(C)=O)CC1 | inactive: -3.29% |
| CCC(CC)c1nn2c(=O)cc(COc3ccc(NC(=O)c4cccc(Cl)c4)cc3)nc2s1 | inactive: 14.7% |
| COc1ccc(C)cc1NS(=O)(=O)c1ccc2c(c1)n(C)c(=O)n2C | inactive: -2.33% |
| Cc1ccc2c(c1)N(C(=O)NCc1ccccc1)CCO2 | inactive: 1.96% |
| CCC(C)NC(=O)c1ccc2c(=O)n3c(nc2c1)CCCCC3 (stereo not given) | inactive: 15.7% |
| Cc1ccc(NC(=O)Cn2nnc3sc(-c4ccccc4)cc3c2=O)cc1Cl | inactive: 7.18% |
| Cc1nnc2c(Nc3cccc(O)c3)nc3ccccc3n12 | inactive: -0.35% |
| CCn1c(=O)c(=O)n(CC)c2cc(N3CCCCC3)c(NC(=O)c3cccc(F)c3)cc21 | inactive: -6.01% |
| CCOc1ccc(/C=C/c2nc3ccccc3n2S(=O)(=O)c2ccc(Br)cc2)cc1 | inactive: -6.72% |
| COc1cccc(NC(=O)Cn2c(=O)n(-c3ccc(Cl)cc3)c(=O)c3sc4ccccc4c32)c1 | inactive: 1.97% |
| O=C(Cn1c(=O)nc(-c2ccccc2)c2cc(Cl)ccc21)NCCc1ccc(Cl)cc1 | inactive: 10.9% |
| COc1ccc(S(=O)(=O)NCC(c2ccco2)N2CCOCC2)cc1C (stereo not given) | inactive: -11.7% |
| COc1ccccc1N1CCN(S(=O)(=O)c2c(C)sc3ncn(CC(=O)Nc4ccccc4F)c(=O)c23)CC1 | inactive: 8.06% |
| CCc1ccc(-c2[nH]nc3nc(-c4ccc(OC)cc4)cc(C(=O)NCCc4ccc(OC)c(OC)c4)c23)cc1 | inactive: -14.4% |
| CCOc1ccc(NC(=O)CSc2nnc(CNC(=O)c3c(F)cccc3Cl)o2)cc1 | inactive: 2.92% |
| CCc1ccc(NCc2cccn2-c2nnc(N3CCCCCC3)s2)cc1 | inactive: -17.4% |
| CCOc1ccc(NC(=O)Cn2nc(-c3ccncc3)ccc2=O)cc1 | inactive: 4.58% |
| O=C(c1cccc(Cl)c1)N1CCN(CCc2ccccn2)CC1 | inactive: -3.24% |
